{"source": "PubChem BioAssay AID2675", "about": "(National Center for Advancing Translational Sciences (NCATS), 2010)", "note": "Screen size: about 280,000 compounds; about 100 (0.036%) were called active. The inconclusive results got no clear call from the source; some entries with a clear call stand among them for comparison. The call rests on the fitted dose curve; in most records, active means well fitted inhibition curve with a large enough effect in the signal ratio, with a control signal flat (not every such curve was filed as active); inconclusive means small, poorly fitted or top-dose-only effect, or effect the other way, or a change in a side signal; inactive means no such curve, though single readings can be large or run the other way; the % refers to the signal ratio. Potencies of inconclusive entries are doubtful fits and often do not repeat. “Side channel” marks fits to a control or component signal instead of the main read-out. On the % scale 0 is the no-effect control and ±100 the full control effect; potency means the concentration at half of the fitted maximal effect; tags describe the fitted curve by direction and shape or compound fluorescence and quenching.", "data": [{"biological_target": "Muscleblind-like protein 1 (Homo sapiens) (UniProt Q9NR56)", "sequence (Q9NR56 whole entry, looked up)": "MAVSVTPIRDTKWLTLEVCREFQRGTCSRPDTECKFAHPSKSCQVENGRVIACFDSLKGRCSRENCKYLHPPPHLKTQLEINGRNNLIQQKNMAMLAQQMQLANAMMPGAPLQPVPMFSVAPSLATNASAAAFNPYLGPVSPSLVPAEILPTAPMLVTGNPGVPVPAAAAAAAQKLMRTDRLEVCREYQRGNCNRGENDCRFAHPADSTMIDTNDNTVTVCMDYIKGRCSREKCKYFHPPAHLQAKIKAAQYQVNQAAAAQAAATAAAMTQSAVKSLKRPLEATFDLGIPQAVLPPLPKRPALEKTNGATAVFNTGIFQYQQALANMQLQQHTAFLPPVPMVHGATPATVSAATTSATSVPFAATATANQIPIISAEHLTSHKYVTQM", "assay": "qHTS Assay for Inhibitors of MBNL1-poly(CUG) RNA binding", "conditions": "TR-FRET MBNL1-His/biotin-(CUG)12 binding, 665/545 ratio; activity change, negative = inhibition: at 57.5 µM (top of the series)", "how_it_was_run": "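His-tagged MBNL1 binding to biotinylated (CUG)12 RNA was measured by TR-FRET using terbium anti-His antibody (0.055 ng/ul final) and streptavidin-XL665 (5 nM final). Compounds were titrated 92 nM to 58 uM; 60 min at room temperature.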", "values": [{"compound": "CN1C=CC=C/C1=C1\\SC(=S)N(N)C1=O", "Potency": "inconclusive: 15.8 µM [quencher, partial curve]"}, {"compound": "CC(C)C1Oc2cc3oc(=O)ccc3cc2C1=O", "note": "(stereo not given)", "Potency": "inconclusive: 31.6 µM [quencher, side channel, single point]"}, {"compound": "C=CCc1cccc(/C=N/NC(=O)COc2ccc(-n3cnnn3)cc2)c1O", "activity change, negative = inhibition": "inactive: -7.5%"}, {"compound": "CC1CCCCN1S(=O)(=O)c1ccc(C(=O)Nc2nnc(-c3ccccc3Cl)o2)cc1", "note": "(stereo not given)", "activity change, negative = inhibition": "inactive: 8.1%"}, {"compound": "NC(=O)c1cccnc1Oc1ccc(Cl)cc1Cl", "activity change, negative = inhibition": "inactive: -4.35%"}, {"compound": "CCCCN(CC)CCNC(=O)c1cc2c(=O)[nH]c3ccccc3c2s1", "Potency": "inconclusive: 15.8 µM [quencher, side channel, partial curve]"}, {"compound": "O=C(O)c1ccc(-n2cccc2/C=C2/SC(=O)N(CC(=O)N3CCCC3)C2=O)cc1", "Potency": "inconclusive: 7.94 µM [quencher, side channel, full curve]"}, {"compound": "CC(C)(C)c1ccc(C(=O)Nc2cccc3c(=O)[nH][nH]c(=O)c23)cc1", "Potency": "inconclusive: 14.1 µM [quencher, side channel, partial curve]"}, {"compound": "CN(CC(=O)Nc1ccc(Cl)c(Cl)c1)C1CCCCC1", "activity change, negative = inhibition": "inactive: -6.62%"}, {"compound": "COc1cccc(C2C=C(Nc3ccccc3)C(=O)N2c2ccccc2)c1", "note": "(stereo not given)", "Potency": "inconclusive: 8.91 µM [fluorescent, side channel, partial curve, poor fit]"}, {"compound": "O=C(C[n+]1ccccc1)c1ccc(-c2ccccc2)cc1", "activity change, negative = inhibition": "inactive: 5.18%"}, {"compound": "Cc1n[nH]c(C)c1N=Nc1ccc(Br)cc1", "Potency": "inconclusive: 28.2 µM [quencher, side channel, single point]"}, {"compound": "O=C(NN1C(=O)/C(=C/c2ccc(O)c(O)c2)SC1=S)c1ccccc1", "Potency": "inconclusive: 10 µM [quencher, side channel, partial curve]"}, {"compound": "COc1ccc(N2C(=O)C(CN3CCN(C)CC3)C2c2ccccc2)cc1", "note": "(stereo not given)", "activity change, negative = inhibition": "inactive: 5.23%"}, {"compound": "Cc1nc2ccccc2n1CCc1ccccc1", "activity change, negative = inhibition": "inactive: 14.8%"}, {"compound": "O=C(Cn1ncn2c(cc3ccccc32)c1=O)NCc1ccco1", "Potency": "inconclusive: 15.8 µM [quencher, side channel, partial curve]"}, {"compound": "C[N+]1(C)CCC(=C2c3ccccc3CC(=O)c3sccc32)CC1", "Potency": "inconclusive: 17.8 µM [quencher, side channel, partial curve, poor fit]"}, {"compound": "Cc1cccc(NC(=O)COC(=O)c2ccc([N+](=O)[O-])o2)c1C", "Potency": "inconclusive: 15.8 µM [quencher, side channel, partial curve]"}, {"compound": "C/C(=C\\C=C\\c1ccccc1)C(=O)c1c(C)cc(C)[nH]c1=O", "Potency": "inconclusive: 20 µM [quencher, side channel, single point]"}, {"compound": "COC(=O)c1ccc(COC(=O)c2cc3ccccc3oc2=O)cc1", "Potency": "inconclusive: 3.55 µM [quencher, side channel, single point]"}, {"compound": "CCOC(=O)c1c(NC(=S)Nc2ccccc2)sc2c1CC(C)(C)SC2", "activity change, negative = inhibition": "inactive: 36.8%"}, {"compound": "c1ccn2c(CNc3ncnc4sccc34)nnc2c1", "Potency": "inconclusive: 44.7 µM [quencher, side channel, partial curve, poor fit]"}, {"compound": "O=[N+]([O-])c1ccc(-c2n(-c3ccccn3)c3ccccc3[n+]2-c2ccccn2)cc1", "Potency": "inconclusive: 14.1 µM [quencher, side channel, partial curve]"}, {"compound": "Cn1cnnc1Sc1ccc(C(=O)OCC(=O)NC2CC2)cc1[N+](=O)[O-]", "Potency": "inconclusive: 8.91 µM [quencher, partial curve]"}, {"compound": "O=C1c2[nH]nc(-c3ccccc3O)c2C(c2cccc(Cl)c2)N1Cc1ccco1", "note": "(stereo not given)", "Potency": "inconclusive: 31.6 µM [quencher, side channel, partial curve]"}, {"compound": "O=C(COC(=O)CSc1cc(Cl)ccc1Cl)NCc1ccc2c(c1)OCO2", "activity change, negative = inhibition": "inactive: -10.9%"}, {"compound": "O=C1c2cccc3cc([N+](=O)[O-])cc(c23)C(=O)N1CC1CCCO1", "note": "(stereo not given)", "Potency": "inconclusive: 4.47 µM [quencher, side channel, full curve]"}, {"compound": "Cc1nn(CC(=O)NCCCN2CC(C)CC(C)C2)c(=O)c2cccn12", "note": "(stereo not given)", "activity change, negative = inhibition": "inactive: 0.69%"}, {"compound": "O=C1Nc2ccc(F)cc2C12Nc1ccccc1-c1nnc(SCc3ccccc3F)nc1O2", "note": "(stereo not given)", "Potency": "inconclusive: 3.55 µM [quencher, side channel, full curve]"}, {"compound": "COc1ccc(CC(=O)NC2CC(C)(C)NC(C)(C)C2)cc1", "activity change, negative = inhibition": "inactive: 11.2%"}, {"compound": "CC1CN(C(=O)/C=C/c2ccccc2[N+](=O)[O-])CC(C)O1", "note": "(stereo not given)", "Potency": "inconclusive: 15.8 µM [quencher, side channel, partial curve]"}, {"compound": "Cc1c(NC(=O)c2ccc(F)cc2)c(=O)n(-c2ccccc2)n1C", "activity change, negative = inhibition": "inactive: 2.97%"}, {"compound": "COc1cc(OC)cc(C(=O)N[C@H](C(=O)Nc2nc3ccc(S(C)(=O)=O)cc3s2)C(C)C)c1", "Potency": "inconclusive: 35.5 µM [fluorescent, side channel, single point]"}, {"compound": "Cc1ccc(OCC(=O)Nc2cnn(CCCC(=O)O)c2)c([N+](=O)[O-])c1", "Potency": "inconclusive: 22.4 µM [quencher, side channel, single point]"}, {"compound": "Cc1ccc(-n2c(C)cc(=O)cc2C)cc1[N+](=O)[O-]", "Potency": "inconclusive: 22.4 µM [quencher, side channel, single point]"}, {"compound": "CSc1ccccc1C(=O)N1CCOCC1", "Potency": "inconclusive: 0.631 µM [quencher, side channel, single point]"}, {"compound": "COc1ccc(NC(=O)CCNS(=O)(=O)c2cccc3nsnc23)cc1OC", "Potency": "inconclusive: 15.8 µM [quencher, side channel, partial curve]"}, {"compound": "Cc1c([N+](=O)[O-])c([N+](=O)[O-])nn1CC(=O)N1CCCCC1", "Potency": "inconclusive: 31.6 µM [quencher, side channel, single point]"}, {"compound": "COc1cccc(/C=N/N2C(=O)CSC2=S)c1O", "Potency": "inconclusive: 22.4 µM [quencher, partial curve, poor fit]"}, {"compound": "CCOC(=O)c1ccccc1NC(=S)N1CCN(C2CCCCC2)CC1", "Potency": "inconclusive: 0.708 µM [fluorescent, side channel, single point]"}]}]}
